# From the supplement of paper PMC11417369
# ± gives the standard deviation of the averaged measurements. The list shows a part of the results.
# System: PfAP2-EXP AP2 domain (GST-tagged)
# Assay: gcPBM binding intensity (ln(normalized median fluorescence intensity)); higher = stronger DNA binding
# In short: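 Binding intensity values are the highest Masliner-normalised natural-log median intensity among replicate spots of either probe orientation. The binding step lasted 1 h in 1× PBS with 1% milk, 0.2 mg/ml BSA, 0.5% salmon testes DNA and 0.03% Triton X-100, using GST-tagged P. falciparum DNA-binding domains expressed in E. coli on an Agilent 4 × 180k array of primer-extended double-stranded 36-bp intergenic genomic probes plus negative controls. Alexa488 anti-GST antibody and a 488 nm scan detected bound protein.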
row,Sequence,gcPBM binding intensity (ln)
1,CTCTATATATTATTATGTACTAAATGTATGTATGTA [XGTACX_site7151],8.48 ± 0.28
2,TTCTTCTGTTTTATTACACACCATTTTGTGTCTACA [CACACA_site8643],9.29 ± 0.5
3,ATGAATGAATAAAGAAGTACGGAAATATTAACAAAA [XGTACX_site4695],8.87 ± 0.46
4,AAAACACAATTTATTACACACATATATTATATATTA [CACACA_site1420],8.21 ± 0.4
5,TAACACACTAAGAAAAGTACTGATTAATATAATTTT [XGTACX_site5536],8.2 ± 0.36
6,ATAACATACATAACAACACACAATATTTATCTGTAT [CACACA_site4279],8.71 ± 0.43
7,ATATATAATTCCCAAGTGCATTTATTTTAATTATTA,8.87 ± 0.26
8,TTCATTCAAATCCAAGCATGCTTTATTAAAAAATTA [TGCATGCA_site567],8.54 ± 0.47
9,AATAAATTTCAAAATTGTACTCATTTCCTTTCCCAA [XGTACX_site5887],8.43 ± 0.38
10,TACGCCTATAACGGCTGTACACCTTACTTTTTTTAA [XGTACX_site6818],8.54 ± 0.36
11,TATGATTTTTATATATGTACGTATGGTGTTTTACAA [XGTACX_site6100],8.8 ± 0.42
12,TGTGAAATAAAATTTGTACACACATATATATATATA [CACACA_site8093],10.1 ± 0.34
13,GAACTAATAATGAAAAGTACACATACACATATATAT [XGTACX_site6789],8.73 ± 0.24
14,AAATGTATACACATGGTGCGTAATATATTATATATA [GTGCAC_site9877],8.99 ± 0.17
15,CTACCAAATCTATAGACACACATATATATATATATT [CACACA_site2486],8.56 ± 0.33
16,TTTATATAATAGTTATGTACTTAAACGAAAGATACA [XGTACX_site8495],8.52 ± 0.34
17,AAATACAAGGGACATGCATACCACTATTTTTTAAAT [TGCATGCA_site588],8.51 ± 0.28
18,AAAGATATTTTTATCTCACACATATAATATATATAT [CACACA_site5478],9.07 ± 0.12
19,GTTACTGCATACATAACACACATATTCAAAACACAT [CACACA_site3502],8.85 ± 0.76
20,TATTTACAGACATGCGCACACATAAATAAATAATAG [CACACA_site2411],8.96 ± 0.3
21,GCATATGTATATAATGTGCACATGGATTATATAAAA,8.96 ± 0.11
22,TATAGAAAATTTATATGTACATATATATATATATAT [XGTACX_site4451],10.1 ± 0.44
23,TAAAATTTAAGTTATACACACTTAAGTAACATCATC [CACACA_site6395],8.72 ± 0.37

row,Sequence,gcPBM binding intensity (ln)
1,CACTTTAATTTATGCACACATATGGAACAACAGCCA [CACACA_site994],9.17 ± 0.14
2,TAAGTTTGTCAATCAACACACACCTATTTATTATAT [CACACA_site3919],8.38 ± 0.39
3,TTTTTTGACATTCCTTTTAATAATTAACGAAAGGCA [GTGCAC_negctrl_site377],8.2 ± 0.33
4,CTTAAAATGATAATATGTACACATAAATAATATATA [XGTACX_site8330],8.56 ± 0.3
5,TATATAATATTACGTTGTACACTTTAATCTCCCTTC [XGTACX_site5577],8.89 ± 0.51
6,ACTAATATGCAATATTGTACATATATATAGAAATAT [XGTACX_site5273],8.66 ± 0.36
7,ACCATTTGAAAATTCACACACTTTATTTTGTTATAT [CACACA_site5976],8.85 ± 0.33
8,AATATATCGCATAGTTGTACAGAATTTTTACTTTTA [XGTACX_site8192],8.73 ± 0.51
9,ATTGAAAAATAAAAATGTACACATGTAGCATACCAT [XGTACX_site3275],8.69 ± 0.41
10,TATAATCAATGCCAAAGTACATATTAATATATTTAT [XGTACX_site4558],8.4 ± 0.34
11,ACTTGACACGGACACACACACATATATAAAAAAAAA [CACACA_site4576],8.62 ± 0.42
12,TTTTTTTATTATCATGCACACATTTTTTTTTTTTAC [CACACA_site2253],8.72 ± 0.39
13,ATAATAAAAATAAGAGAATAAAAATGCAATTTAATG [CACACA_negctrl_site878],8.65 ± 0.35
14,TCCTTTATTTTTAAATGTACAAATATTATCTCCTCA [XGTACX_site5856],8.53 ± 0.35
15,TGATTCTTTTGTATCACACACACTTAGTTTAATTTT [CACACA_site2404],8.62 ± 0.41
16,ATTTATAATGTGTATACACACATATATAGATTTGCT [CACACA_site6440],8.46 ± 0.33
17,ATTGATCGGATAAAATGTACAAATATATATATATAT [XGTACX_site7345],9.96 ± 0.19
18,AACTCACATAAATTCACACAAATGTATATTCATATA [CACACA_site4554],8.4 ± 0.44
19,AAATTATAATATAATACACACATAAAAAAAAAATCA [CACACA_site3634],8.6 ± 0.43
20,TATATATATATATATTGTACACATATATATTTACGA [XGTACX_site4791],10.1 ± 0.21
21,AACATGAAAGATAGCAAAAAAAAAAAAAAAAAAAAA [TGCATGCA_negctrl_site607],7.92 ± 0.47
22,AAAAAATAATAAATCACACATATTATATATATATAT [CACACA_site5838],9.88 ± 0.27
23,CATATTAATATTATGGGTACATATAAATTTACATTC [XGTACX_site687],8.64 ± 0.38

row,Sequence,gcPBM binding intensity (ln)
1,TCTTTTTTTATTTTATTTTTTTTTTTTAAATAATTC [TGCATGCA_negctrl_site372],8.44 ± 0.4
2,AAAACATAAATACATACACACATAATATATATTAAT [CACACA_site109],8.79 ± 0.25
3,ATTATAATATTGTTATGTACATAAAAATTATTGAAT [XGTACX_site4476],8.64 ± 0.26
4,ATAATATATTTATAATGTACATAAGAACAAATTAAA [XGTACX_site1745],8.75 ± 0.41
5,GGTATATTAAAATAGGTGCATAAAACTAAGAGAAAA [GTGCAC_site9781],9.33 ± 0.028
6,ACGTTTGATACACATAAAGTTTTCCTTTGAATGTAC [CACACA_negctrl_site106],8.53 ± 0.42
7,AAAAATTACCTGACTTGTACATAATTTAAGAACAAT [XGTACX_site6233],8.45 ± 0.36
8,ATAAAATAAAAGTGTACACAAGAAAATATGTTATGT [CACACA_site6033],9.44 ± 0.59
9,TGTGCTATATTCATATGTACATATAATTATTATATA [XGTACX_site3549],8.86 ± 0.028
10,AATAATACACAATTTTGTACGTATTTAAAATATATT [XGTACX_site45],8.56 ± 0.41
11,TAAAATATATAATAATGTACATATTTTTATTTAGGA [XGTACX_site4987],8.15 ± 0.31
12,AATTAAAAACATTTCACACATAAAAATGAAATATAT [CACACA_site5199],8.53 ± 0.3
13,TATTTATGAGAAATAGTGCAAAGATATGATCTTTAA,8.28 ± 0.23
14,TGTATGAAATATATTACACACATATAAAATCTATAT [CACACA_site6514],8.35 ± 0.57
15,TTGATGTTGGTAGGATGTACGGTACCGGTAAAGTTT [XGTACX_site7705],8.92 ± 0.49
16,TTTTTAATTTTTTGTTGTACATATAATATATTATTA [XGTACX_site4903],8.6 ± 0.27
17,AAGCTTCATTAATATACACACATATATGCGTATATT [CACACA_site3695],8.47 ± 0.4
18,AAATTTGAAGAATATTGTACGCATAATAATTAAATA [XGTACX_site4300],8.82 ± 0.41
19,TATATAATTATAAGAACACACATATATATATATATA [CACACA_site2472],10.2 ± 0.2
20,ATATATATATATTGCACACACAATTATTATTATTAT [CACACA_site2299],10.03 ± 0.035
21,TATATATATATTTTAACACACACATATATATATTTA [CACACA_site8892],9.56 ± 0.21
22,ATGCTTTTTAAATGATTGCACTAGATTGTAATATGT [GTGCAC_site9666],8.62 ± 0.33
23,AATTATATATTTGAGAGTACATATGTAATGTTTATA [XGTACX_site6970],8.57 ± 0.33

row,Sequence,gcPBM binding intensity (ln)
1,GTGCATATCTGATATACACACAATAAAATAGTATGT [CACACA_site7203],8.48 ± 0.28
2,TATGATACATAAATATGTACGTATAATATATATTTA [XGTACX_site7002],8.39 ± 0.35
3,CATATATTATTTATACGTACTAATAAAATAAATCAA [XGTACX_site1030],8.52 ± 0.26
4,CCCGTAAATTATGAGTGTACGTTATTTTTTAAAATG [XGTACX_site3946],8.81 ± 0.49
5,ACATATACATATATATGTACATAAATATATATATAT [XGTACX_site8630],9.64 ± 0.42
6,TTCTAACTTTTAAACACACAAATATAAATAAGTATA [CACACA_site7473],8.29 ± 0.62
7,AAGAATAATAATAAATGTACACAATATTATATATAT [XGTACX_site5525],8.67 ± 0.085
8,AAATGAACAAGTGGCACACACACATTATAACTAATT [CACACA_site9048],8.49 ± 0.54
9,GAACGTATCATGTGTACACACAAATTGTTTTTTTTT [CACACA_site2020],8.79 ± 0.39
10,TGCAAGCTTATATAGGTGCACATGTATACGTGTTCA,9.01 ± 0.25
11,TATGTAGTCACAAGGTGTACACTTTAACAAATTATG [XGTACX_site8792],8.97 ± 0.42
12,TATTAAAATTAAAAAAAAAAAAAAAAGCAATAAAAA [XGTACX_negctrl_site426],8.33 ± 0.71
13,TATATACACAAACACACACACACATACACCCACATA [CACACA_site8504],8.72 ± 0.53
14,CACAAAAAGAAACACACACACATATATATATATATA [CACACA_site999],10.2 ± 0.22
15,ATTCTAAATAATAAGAGTACAAATAATATGGAGAAG [XGTACX_site5209],9.12 ± 0.51
16,ATATGAACATTTACATGTACATGTAAATGTAACACT [XGTACX_site4574],8.71 ± 0.37
17,TGCTCATTCCTGTCATGTACATATTATATATATATA [XGTACX_site6890],9.8 ± 0.099
18,GAAAATATGTAATAGTGTACACATATATATGTATAT [XGTACX_site306],8.76 ± 0.18
19,ACTCCATAATATTGATGTACTATAATGCATTTATTT [XGTACX_site5562],8.95 ± 0.34
20,TATTTATTTTCATATAGTACTTTTTTCAGGCATATA [XGTACX_site6691],8.6 ± 0.39
21,TTATAGAATTTATTTACACACAAACATTTATACTTT [CACACA_site7592],8.39 ± 0.38
